Holding throughout (assay): Primary Screen for Target Class Profiling of Small Molecule Inhibitors of Methyltransferases
Test [1] has as its target Glycine N-methyltransferase (Homo sapiens) (UniProt Q14749). The note with it: purified enzyme, MTase-Glo SAH luminescence; measured here: GNMT inhibition; at 40 µM; stronger effect = lower value. The method, boiled down: (§1)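 Each enzyme was reacted with SAM and its substrate, with compounds tested once at 40 uM; SAH formed was read by MTase-Glo luminescence.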
The target of test [2] is Guanidinoacetate N-methyltransferase (Homo sapiens) (UniProt Q14353). The note with it: purified enzyme, MTase-Glo SAH luminescence; measured here: GAMT inhibition; at 40 µM; stronger effect = lower value. Summed up: as §1
The target in test [3] is Histamine N-methyltransferase (Homo sapiens) (UniProt P50135). The note with it: purified enzyme, MTase-Glo SAH luminescence; measured here: HNMT inhibition; at 40 µM; stronger effect = lower value. Summed up:
as §1

Test [4] has as its target Nicotinamide N-methyltransferase (Homo sapiens) (UniProt P40261). The note with it: purified enzyme, MTase-Glo SAH luminescence; measured here: NNMT inhibition; at 40 µM; stronger effect = lower value. The method, boiled down:
as §1

The target of test [5] is Phenylethanolamine N-methyltransferase (Homo sapiens) (UniProt P11086). The note with it: purified enzyme, MTase-Glo SAH luminescence; measured here: PNMT inhibition; at 40 µM; stronger effect = lower value. Summed up:
as §1

Some of the results follow. These are further read-outs of the screen, such as a control signal, another cell line or another target. No call is given for them.
% is scaled to controls: 0 for no effect and ±100 for the full control effect.

With `Cc1ccc(C)c(NC(=O)N2Cc3ccccc3-n3cccc3C2c2cccs2)c1` (stereo not given), the activity change, negative = inhibition is 5.96% in test [1]; 0.499% in test [2]; 3.43% in test [3]; -0.399% in test [4]; 4.58% in test [5].

On to `COc1ccc(C2c3cccn3-c3ccccc3CN2C(=O)NCCC(C)C)cc1OC` (stereo not given), for which the activity change, negative = inhibition is 0.123% in test [1]; 1.69% in test [2]; -5.87% in test [3]; -1.23% in test [4]; -0.597% in test [5].

Turning to `COc1ccc(C2c3cccn3-c3ccccc3CN2C(=O)NCc2cccc(OC)c2)cc1` (stereo not given), the activity change, negative = inhibition in test [1] was 7.41%; in test [2], 4.31%; in test [3], 7.28%; in test [4] it was -1.79%; in test [5], 3.48%.

Turning to `COc1ccc(C2c3cccn3-c3ccccc3CN2C(=O)NC2CCCC2)cc1` (stereo not given), the activity change, negative = inhibition in test [1] is 7.52%; in test [2] it was 0%; in test [3], 1.78%; in test [4], -2.91%; in test [5] it was 4.28%.

For `O=C(Nc1ccc2c(c1)OCCO2)N1Cc2ccccc2-n2cccc2C1c1cc(F)cc(F)c1` (stereo not given), the activity change, negative = inhibition in test [1] turned out to be 8.94%; in test [2], 0%; in test [3], 0.531%; in test [4] it was 7.51%; in test [5] it was 6.96%.

For the compound `CNC1CCc2ccccc21` (stereo not given), the activity change, negative = inhibition in test [1] was -4.82%; in test [2], -4.57%; in test [3], -19.9%; in test [4] it was -11.8%; in test [5], -50.2%.

`Cc1cccc(NC(=O)N[C@@H]2N=C(c3ccccc3)c3ccccc3N(C)C2=O)c1`: the activity change, negative = inhibition in test [1] is 5.26%; in test [2] it was -4.41%; in test [3], 4.98%; in test [4], -33.3%; in test [5], -4.6%.

On to `O=C(Nc1ccccc1Br)N1Cc2ccccc2-n2cccc2C1c1ccccc1` (stereo not given), for which the activity change, negative = inhibition in test [1] is 1.24%; in test [2] it was 3.85%; in test [3] it was -5.29%; in test [4], -6.57%; in test [5], -3.41%.

`CN(C(=O)Cc1ccc(Cl)c(Cl)c1)C(CN1CCCC1)c1cccc(OCC(=O)O)c1` (stereo not given): the activity change, negative = inhibition in test [1] was -4.97%; in test [2] it was 1.78%; in test [3], -4.44%; in test [4] it was -6.45%; in test [5] it was 6.29%.

On to `NCCc1ccc(O)cc1`, for which the activity change, negative = inhibition was 5.7% in test [1]; 12.4% in test [2]; -94.2% in test [3]; -3% in test [4]; -0.407% in test [5].

On to `O=[S+]([O-])(C1CC1)N1C2CCC1CN(Cc1cccnc1)C2`, for which the activity change, negative = inhibition in test [1] was -5.35%; in test [2] it was -8.39%; in test [3] it was -2.24%; in test [4] it was -10%; in test [5] it was -3.67%.

On to `CCOCCCNC(=O)N1Cc2ccccc2-n2cccc2C1c1ccc(OCC)cc1` (stereo not given), for which the activity change, negative = inhibition in test [1] was -1.28%; in test [2], 2.81%; in test [3], 9.91%; in test [4], 4.15%; in test [5] it was 8.97%.

For `COc1ccc(C23CCC(=O)C=C2N(C)CC3)cc1OC` (stereo not given), the activity change, negative = inhibition is -6.37% in test [1]; -12.2% in test [2]; -1.2% in test [3]; -20.3% in test [4]; -12.3% in test [5].

Consider `CCOC(=O)CNC(=O)N1Cc2ccccc2-n2cccc2C1c1ccc(C(C)C)cc1` (stereo not given), for which the activity change, negative = inhibition in test [1] is -4.57%; in test [2], 3.52%; in test [3], 7.49%; in test [4], -3.87%; in test [5], 2.73%.

`COc1ccc(-c2cc([C@H]3CN4CC[C@H]3C[C@@H]4CN)nc(C)n2)cc1OC`: the activity change, negative = inhibition in test [1] was -23.5%; in test [2] it was -1.27%; in test [3] it was -57.3%; in test [4], -40%; in test [5], -6.2%.

In the case of `Cc1ccc(C2c3cccn3-c3ccccc3CN2C(=O)Nc2ccc(C)c(Cl)c2)cc1` (stereo not given), the activity change, negative = inhibition in test [1] is 5.36%; in test [2], 6.73%; in test [3], -7%; in test [4], -6%; in test [5], -0.948%.

In the case of `NNC(N)=O`, the activity change, negative = inhibition in test [1] was -4.05%; in test [2] it was 7.25%; in test [3] it was 0.233%; in test [4] it was -2.41%; in test [5], 7.94%.

Turning to `Cn1nc(-c2ccc(F)cc2)cc1[C@H]1CN2CC[C@H]1C[C@@H]2CNC(=O)c1cccs1`, the activity change, negative = inhibition in test [1] is -5.3%; in test [2] it was -4.29%; in test [3], -23%; in test [4], -11.6%; in test [5], -2%.

Take `N#C[C@@H](O[C@@H]1O[C@H](CO[C@@H]2O[C@H](CO)[C@@H](O)[C@H](O)[C@H]2O)[C@@H](O)[C@H](O)[C@H]1O)c1ccccc1`: the activity change, negative = inhibition is -0.436% in test [1]; -1.53% in test [2]; 3.61% in test [3]; -11% in test [4]; -8.55% in test [5].

In the case of `Oc1ccc2c3c1O[C@H]1[C@H](N(CCCl)CCCl)CC[C@@]4(O)[C@@H](C2)N(CC2CC2)CC[C@]314`, the activity change, negative = inhibition is 2.8% in test [1]; -1.26% in test [2]; 12% in test [3]; -7.84% in test [4]; 6.11% in test [5].

Regarding `COc1ccc(NC(=O)N2Cc3ccccc3-n3cccc3C2c2cccs2)c(OC)c1` (stereo not given), the activity change, negative = inhibition in test [1] was 3.16%; in test [2], 4.65%; in test [3], -4.17%; in test [4], -2.85%; in test [5], 3.95%.

With `CC(C)N(CCNC(=O)CN1CCCC1=O)C(C)C`, the activity change, negative = inhibition in test [1] was 5.73%; in test [2] it was 9.55%; in test [3] it was 11.2%; in test [4], -6.96%; in test [5], 6.74%.

As to `CCC1c2cccn2-c2ccccc2CN1C(=O)Nc1cc(C(=O)OC)ccc1C(=O)OC` (stereo not given), the activity change, negative = inhibition in test [1] was 1.63%; in test [2] it was 0.988%; in test [3] it was -0.349%; in test [4] it was 0.906%; in test [5], 4.13%.

On to `CCOC(=O)c1ccc(NC(=O)N2Cc3ccccc3-n3cccc3C2c2cc(F)cc(F)c2)cc1` (stereo not given), for which the activity change, negative = inhibition in test [1] was -0.711%; in test [2], 3.89%; in test [3], 0.283%; in test [4] it was -5.22%; in test [5], -0.319%.

Turning to `Cc1ccc(NC(=O)N2Cc3ccccc3-n3cccc3C2c2cccc(Cl)c2)c(Cl)c1` (stereo not given), the activity change, negative = inhibition worked out at 14.7% in test [1]; 7.08% in test [2]; 11.5% in test [3]; 8.87% in test [4]; 10.4% in test [5].

For the compound `CC(=O)N1CCCC2(CC(c3cccnc3)=NO2)C1` (stereo not given), the activity change, negative = inhibition in test [1] is -1.38%; in test [2] it was -2.07%; in test [3], 1.33%; in test [4] it was -4.33%; in test [5] it was -2.5%.

In the case of `C[C@@H]1O[C@@H](O[C@H]2CC[C@@]3(C)C(CC[C@@H]4C3CC[C@]3(C)[C@@H](C5=CC(=O)OC5)CC[C@]43O)C2)[C@H](O[C@@H]2O[C@H](CO)[C@@H](O)[C@H](O)[C@H]2O)[C@H](O)[C@H]1O` (stereo not given in full), the activity change, negative = inhibition in test [1] is 4.49%; in test [2] it was 6.39%; in test [3], 11.9%; in test [4], -5.73%; in test [5] it was 4.78%.

Regarding `COC(=O)c1cccc(NC(=O)N2Cc3ccccc3-n3cccc3C2c2cccc(Cl)c2)c1` (stereo not given), the activity change, negative = inhibition in test [1] is 13.7%; in test [2], 0.397%; in test [3] it was 5.6%; in test [4] it was 0.23%; in test [5], -5.28%.

Take `CCN1C[C@]2(COC)[C@H](O)C[C@H](OC)[C@]34[C@@H]5C[C@]6(O)[C@H](OC(=O)c7ccccc7)[C@@H]5[C@@](O)([C@H]([C@H](OC)[C@H]23)[C@@H]14)[C@@H](O)[C@@H]6OC`: the activity change, negative = inhibition in test [1] is 7.18%; in test [2] it was 10.4%; in test [3], 5.95%; in test [4], -3.68%; in test [5] it was 6.23%.

(Values after PubChem BioAssay AID1745853 (National Center for Advancing Translational Sciences (NCATS), 2022).)
